Sequences with one replicate were seen in a single cluster, so their values are uncertain.
Test system: ATP
Assay: switch fluorescence ratio, 500 uM ATP over buffer (Cy3 cluster intensity, sum of 5 cycles each) (fold (ratio)); higher = stronger signal-on switching upon ATP binding; sequences stand for … in TCGTCGGCAGCGTCAGATGTGTATAAGAGACAGTTTTTTTTTTTTTTTTTTTTTTTTT…TC
Conditions: aptamer strand: ATP DNA aptamer (quencher-CACCTGGGGGAGTATTGCGGAGGAAGG + anchor), 100 nM annealed; ATP concentration: 500 uM; one replicate
How it was run: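 Cy3-labelled switching-strand clusters on a modified Illumina MiSeq flow-cell were annealed to 100 nM quencher-labelled ATP aptamer, imaged in selection buffer, then imaged after 15 min with 500 uM ATP at 22 °C. Five buffer/ATP cycles ran, with NaOH stripping and re-annealing between them. The fluorescence ratio is summed target-cycle over summed buffer-cycle Cy3 intensity per cluster, averaged per switch-domain sequence. Clusters outside 100-1000 RFU were excluded.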
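Note: ATP exposure 15 min at 22 °C before imaging.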

Row | Sequence | switch fluorescence ratio
1 | GATTTGAGTT | 0.985
2 | TCATAGAGCG | 0.996
3 | AGGGACCGGT | 0.96
4 | GGGAAAAGCA | 0.983
5 | GGGTCAAAG | 0.967
6 | TTGAAGTTGG | 0.965
7 | CACCCTTATG | 0.989
8 | TGCATGAGTA | 1.01
9 | ATGGGGCGCG | 0.993
10 | TGAAGGG | 0.983
11 | ACAGTTGTGA | 0.964
12 | AAAACAAGTT | 1.01
13 | AATAATTCAA | 0.975
14 | AGGGTCCTCT | 1.02
15 | AATAGTCGAC | 1.02
16 | TTTTGTACTA | 1
17 | TTAGTCGATT | 1.01
18 | ATCACGAAG | 1.02
19 | TGGAATCTGC | 0.998
20 | GGGTTCGG | 1.01
21 | TTATGTTGAT | 1.02
22 | TTGATCAGCT | 0.974
23 | ACGATTAATA | 1.05
24 | CGGCGCAGCA | 1.02
25 | CTGTAGCCTC | 1.86
26 | GCCAGTAAAC | 1.05

Row | Sequence | switch fluorescence ratio
27 | CTATGTAGTG | 1.01
28 | GGTTGCGG | 1.02
29 | TGACAGCGAT | 1.48
30 | CGATTCGAC | 1.08
31 | GTGTTAAATT | 1.04
32 | GCCGTTTGTC | 1.03
33 | TAAGAGTCAG | 1
34 | CCTTTTTGGC | 1.03
35 | GGATCGATCG | 1
36 | CGGGGATGAG | 0.963
37 | CAAAACTGTT | 1.09
38 | CGCTAATCCG | 1.04
39 | CGAAAAAAAC | 1.01
40 | ATGTGGGGG | 1.03
41 | ATGACGTCTG | 0.962
42 | CGGCTTGGAA | 1.03
43 | TTAGACCTAG | 0.973
44 | ATGAGTAATT | 0.959
45 | TTCGGTGTGA | 1.03
46 | CGGCCTT | 1.06
47 | GATCAGTTAG | 1.02
48 | TTAGGAGTAG | 0.966
49 | GTGAGTTGTG | 1.01
50 | CCTCGGAGCA | 3.59
51 | AGGACTGCGA | 1.03
52 | AGAAGTACAG | 1.25

Row | Sequence | switch fluorescence ratio
53 | TCCGCGCGCG | 1.02
54 | ATAGCTTACT | 1.21
55 | CATCGGATTG | 0.979
56 | TATAAGGAAT | 0.975
57 | GGGAAAGCCT | 1.12
58 | AGAGTTCAGG | 0.964
59 | GAAACCGATT | 1.01
60 | GATAGGAATG | 0.991
61 | TAGCCAGGGT | 1.03
62 | TGGGTCAGA | 0.994
63 | TCGGACTCCG | 1.07
64 | TACGATTTCA | 1.01
65 | GAACAACAAT | 1.03
66 | CGTTTCTGTT | 0.932
67 | GTATTAGGAG | 0.958
68 | GTCGTTCGAC | 0.97
69 | GCCTCGGCAT | 1.16
70 | TTTGACGAA | 0.988
71 | TGAAGTTCCT | 0.974
72 | TTTCCAGGTC | 1.08
73 | ATGTGGGAAC | 0.995
74 | CCGTGACTAT | 1.12
75 | GGGTCAAATG | 1.01
76 | AACACGGTAC | 1.7
77 | ATTTATTCGT | 0.974
78 | CAAGCCCAAG | 1.01

Row | Sequence | switch fluorescence ratio
79 | TTTCGGGA | 0.966
80 | CAAATTATGC | 1.07
81 | TGCGCTCCGC | 2.61
82 | GCCTCAGCTA | 1.6
83 | CGGTAAAAGC | 1.02
84 | TCCCCATCTT | 1.1
85 | CTTCACTGGG | 1.02
86 | GGGGGAATCT | 0.97
87 | CAGAATCCC | 1.03
88 | GGATAGAAGG | 1.01
89 | CGGTATTGTT | 1.02
90 | GGCCTGTCGG | 1
91 | CATAACACAG | 1
92 | TGTTGGAGCT | 1.02
93 | TCCTACAAAA | 1.97
94 | AGGAGTATTG | 0.947
95 | CGCCGATTCT | 1.03
96 | TTGGCGGCGT | 0.99
97 | AAGGGTAGTG | 1.02
98 | ATGATTGGG | 1.01
99 | TGCATATGAA | 1.03
100 | CGTTCAGGCT | 1.01
101 | GACAACTCTC | 1.04
102 | TCGAATGTAA | 1.04
103 | AAGGCGACGG | 0.968
104 | GATAAAAAG | 0.961

Row | Sequence | switch fluorescence ratio
105 | GAGTTTTGTC | 1.01
106 | GGAAGAGTTA | 1.02
107 | CTGCGACGTA | 0.996
108 | ATTTAGGGAA | 1.04
109 | CGTTTTTTGC | 0.954
110 | AAACCGCTTG | 1.19
111 | TGATTCTCAC | 0.989
112 | ATCACAGAGA | 0.968
113 | GAGCCCACTC | 1.03
114 | TACCTTAACA | 1.07
115 | TATAAAATCC | 1.02
116 | AACGGATCTC | 0.998
117 | TAGGGGAAGT | 0.977
118 | AAATTGGCTC | 1.05
119 | CTATTTCTTA | 0.968
120 | GCTGAAGGCG | 0.936
121 | TCTAGAGCTG | 0.979
122 | TAATGGGAAG | 1.01
123 | TGAGCGAGGA | 1.09
124 | GACGAGATGG | 1.02
125 | GTGGTTACTC | 0.986
126 | TGTACCGCTT | 1.07
127 | TCAGTATAAG | 0.958
128 | TATGAGAGTC | 1.07
129 | CCGTAACGAT | 2.69
130 | CAGAATGTAT | 0.973

Row | Sequence | switch fluorescence ratio
131 | AGTGGAGCGT | 1.03
132 | CATGAAGGA | 0.973
133 | GCCACTCCTG | 1.08
134 | ACGATTACTC | 1.38
135 | TGGAAATAAT | 1.01
136 | ATTGTGTGTC | 0.909
137 | TTGTAGAAAG | 1.01
138 | ACCCCGGCCA | 1.08
139 | TAAGATGTGG | 0.997
140 | CAAAGACCAC | 0.972
141 | CGCTATGCGT | 1.02
142 | ACTAAGTAT | 1.03
143 | GGCAGCAAAG | 1.08
144 | GCAATCTATC | 1.51
145 | TTCTGACTGA | 1.03
146 | TTCTGAGGAA | 1.02
147 | AGTATTCCTG | 0.995
148 | GCCACGTCAC | 1.83
149 | AATTGACGGC | 1.15
150 | ATAAGTAGCC | 1.05
151 | CCGAAACATG | 1.33
152 | CGTCCGTCCA | 1.41
153 | TAGACGCGAT | 3.36
154 | GATATGATAA | 0.968
155 | TACGGGATAG | 1.14
156 | TTGGGTTAAT | 1.03

Row | Sequence | switch fluorescence ratio
157 | AGGCATGCC | 1.03
158 | TGCTTGAGAG | 1.04
159 | GAAGTAGGCT | 0.976
160 | CTAATTGTAA | 0.983
161 | GGTTGTTCTA | 0.979
162 | ACTGTGGTA | 1.01
163 | AGTTACGAGT | 1.01
164 | GCGATTGTGA | 1.05
165 | TAGCAATAAT | 4
166 | TATAGATTGC | 0.989
167 | ACAAACTTTA | 1.09
168 | TACATGACCT | 1.15
169 | GAACACGTG | 1.02
170 | TCCTATTCTG | 1.03
171 | CGTTTTGACT | 1
172 | CATTTTGTCC | 0.998
173 | GCAAGTAGCT | 0.981
174 | TTGTCTGTGT | 0.993
175 | AGGGGTA | 1
176 | AGATTGACTA | 1.02
177 | TACTGCCTTA | 1.01
178 | AGCTCAGTGG | 0.972
179 | CTATCGAAGG | 0.974
180 | GGTGGTATCG | 1.03
181 | CCTTGTCTAC | 2.17
182 | TCCTATAAGC | 1.08

Row | Sequence | switch fluorescence ratio
183 | TGTTCCACAC | 1
184 | ACAGGCTAAT | 1
185 | GCCTAGTTGG | 0.995
186 | ACAACGAACG | 1.2
187 | ATTTTGCGTA | 0.985
188 | GTGCATACCA | 0.962
189 | CGGAAGTCAC | 1.2
190 | AAGTCTGGGT | 1.01
191 | CCGGCGCCTA | 1.26
192 | CGTTTAAACG | 1.02
193 | AGAGAAGCCA | 0.981
194 | ATTGAGAGGT | 1.03
195 | CTGTATCTAC | 1.07
196 | TAAATGAGA | 0.986
197 | ACGGGACAGT | 1.18
198 | CGTAGTTAGG | 1
199 | TCACCGACTT | 1.13
200 | GTTGCCATTT | 1
201 | TTCATAGAGT | 1

Source: the supplement of paper PMC10126150
